# Results reported in the supplement of paper PMC4604168 (melanoma cell lines).
# The other results are listed elsewhere or left out. Single values are uncertain, as repeats are few or missing.
# Tested on: LOXIMVI
# Assay: cell count relative to DMSO control; melanoma cells; higher = more viable cells
# Conditions: library dose: standard library concentration; 72 h
# 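Note: cells treated in 1,536-well plates, then fixed and DAPI-stained, with nuclei counted from automated high-throughput microscope images.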
row,SMILES,cell count
1,"O=C(O)c1ccc2c(c1)nc(Nc1cccc(Cl)c1)c1ccncc12 + C#Cc1cccc(Nc2ncnc3cc(OCCOC)c(OCCOC)cc23)c1 [erlotinib] (first compound 2 µM, partner dose 4 µM)",51.3%
2,"Cc1cc(N2CCOCC2)cc2[nH]c(-c3c(NC[C@@H](O)c4cccc(Cl)c4)cc[nH]c3=O)nc12 + Oc1cc(-c2nc(-c3ccccc3)[nH]c2-c2ccncc2)ccc1Cl [L779450] (first compound 1 µM, partner dose 1 µM)",73.8%
3,"O=C(O)[C@@H]1[O][Sb](=[O])([O][Sb]2(=[O])[O][C@H]([C@H](O)CO)[C@H](O)[C@H](C(=O)O)[O]2)[O][C@H]([C@H](O)CO)[C@@H]1O (stereo not given in full) [stibogluconate] + O=S(=O)(c1ccccc1)N(CC(F)(F)F)c1ccc(C(O)(C(F)(F)F)C(F)(F)F)cc1 [T0901317] (first compound 10 µM, partner dose 7 µM)",131%
4,"O=C(O)[C@@H]1[O][Sb](=[O])([O][Sb]2(=[O])[O][C@H]([C@H](O)CO)[C@H](O)[C@H](C(=O)O)[O]2)[O][C@H]([C@H](O)CO)[C@@H]1O (stereo not given in full) [stibogluconate] + Cn1cncc1[C@@](N)(c1ccc(Cl)cc1)c1ccc2c(c1)c(-c1cccc(Cl)c1)cc(=O)n2C [tipifarnib] (first compound 10 µM, partner dose 0.05 µM)",79.9%
5,"O=C(Nc1cc(C(F)(F)F)cc(C(F)(F)F)c1)c1cc(Cl)ccc1O + COc1ccc(COc2ccc(Cc3cnc(N)nc3N)cc2OC)cc1 [GW2580] (first compound 0.08 µM, partner dose 5 µM)",114%
6,"O=C(Nc1cc(C(F)(F)F)cc(C(F)(F)F)c1)c1cc(Cl)ccc1O + Cc1cc([N+](=O)[O-])ccc1NS(=O)(=O)c1cc(Cl)ccc1Cl [FH535] (first compound 0.08 µM, partner dose 5 µM)",90.3%
7,"O=C(Nc1cc(C(F)(F)F)cc(C(F)(F)F)c1)c1cc(Cl)ccc1O + Cn1cc(/C=C2\C(=O)Nc3cccnc32)c2ccccc21 [GW441756] (first compound 0.08 µM, partner dose 2 µM)",88.5%
8,"O=C(O)c1ccc2c(c1)nc(Nc1cccc(Cl)c1)c1ccncc12 + CCc1ccc(CCOc2ccc(CC3SC(=O)NC3=O)cc2)nc1 [pioglitazone] (first compound 2 µM, partner dose 10 µM)",61.1%
9,"Cc1cc(N2CCOCC2)cc2[nH]c(-c3c(NC[C@@H](O)c4cccc(Cl)c4)cc[nH]c3=O)nc12 + CC(C)CCN1c2nc(Nc3cc(F)c(O)c(F)c3)ncc2N(C)C(=O)C1C [BID1870] (first compound 1 µM, partner dose 1 µM)",46.2%
10,"O=C(Nc1ccccc1)c1cc([N+](=O)[O-])ccc1Cl + COc1ccc(-c2ccc3c(N4CCOCC4)nc(N4C[C@@H](C)O[C@@H](C)C4)nc3n2)cc1CO [KU0063794] (first compound 10 µM, partner dose 0.1 µM)",60.8%
11,"O=C(O)c1ccc2c(c1)nc(Nc1cccc(Cl)c1)c1ccncc12 + O=c1cc(-c2cccc3c2Sc2ccccc2S3)oc(N2CCOCC2)c1 [KU55933] (first compound 2 µM, partner dose 5 µM)",80.6%
12,"O=C(O)c1ccc2c(c1)nc(Nc1cccc(Cl)c1)c1ccncc12 + c1cc(-c2cnn3cc(-c4ccc(OCCN5CCCCC5)cc4)cnc23)ccn1 [Dorsomorphin] (first compound 2 µM, partner dose 2 µM)",86%
13,"Cn1nnc2c(C(N)=O)ncn2c1=O [temozolomide] + Cc1cc([N+](=O)[O-])ccc1NS(=O)(=O)c1cc(Cl)ccc1Cl [FH535] (first compound 10 µM, partner dose 5 µM)",84.5%
14,"O=C(Nc1cc(C(F)(F)F)cc(C(F)(F)F)c1)c1cc(Cl)ccc1O + COc1ccc2c(c1)CCC1C2CCC2(C)C(NCCCCCCN3C(=O)C=CC3=O)CCC12 [U73122] (first compound 0.08 µM, partner dose 2 µM)",96.5%
15,"Cc1cc(N2CCOCC2)cc2[nH]c(-c3c(NC[C@@H](O)c4cccc(Cl)c4)cc[nH]c3=O)nc12 + Oc1nc(-c2ccc(C(F)(F)F)cc2)nc2c1CSCC2 [XAV939] (first compound 1 µM, partner dose 10 µM)",79.9%
